Reference: PubChem BioAssay AID1508624 (National Center for Advancing Translational Sciences (NCATS), 2021)
Hit rate of the full screen: of about 48,000 compounds, about 120 (0.25%) were called active. Roughly 4% stayed inconclusive and do not appear here. Calls come from the whole dose curve; as a rule, active = well fitted activation curve with a large enough effect; inconclusive = small, poorly fitted or top-dose-only effect, or another doubt; inactive = no such curve, though single readings can be large or run the other way. Some of the results follow.

Test: Primary qHTS for Identification of Small Molecule Activators of Huntingtin-Antisense Promoter Activity; note: nearly all actives have a fitted effect of over 55% in size
Conditions: HEK293 HTT-AS promoter firefly luciferase reporter, 24 h; series mostly up to 57.5 µM; activity change, positive = activation: at the top concentration
Outline: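 Luminescence was read after Dual-Glo reagent and a 10 min room-temperature incubation. Values were normalized to vehicle (0% activity) and zero RLU (-100% activity). Reporter HEK293 cells had been exposed to compounds (up to 57.5 uM final) for 24 h.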

Activity change, positive = activation, inactive:
CCC1CCCCN1CCCNC(=O)c1c(O)nc2c(C)cccn2c1=O (stereo not drawn) -1.3%
COc1ccc(-n2c(/C=C/c3cccc4ccccc34)nc3ccccc3c2=O)cc1Cl -8.01%
Cc1cccc(N2CCN(C(=O)c3c(C)oc4ncnc(N5CCOCC5)c34)CC2)c1C -7.35%
Nc1cc(=O)nc(SCC(=O)Nc2ccc(F)cc2)n1-c1cccc(Cl)c1 -7.26%
COc1ccc(C)cc1NC(=O)c1cc(S(=O)(=O)N2CCC(C)CC2)cn1C -11.3%
COc1ccc(CCN2C(=O)N(c3ccc(C)cc3)C(=O)C2CC(=O)Nc2ccc(F)cc2)cc1 (stereo not drawn) -27.9%
Cc1nn(C(=O)COc2ccccc2Br)c(C)c1Sc1ccccc1 0%
CCc1ccc(NC(=O)C(NS(=O)(=O)c2cccc3nsnc23)c2ccccc2)cc1 (stereo not drawn) -11.5%
CS(=O)(=O)c1ccc(C2=C(c3ccccc3)C(=O)OC2)cc1 -8.29%
O=C(CSc1n[nH]c(-c2ccccc2)n1)N1CCN(c2ccccc2F)CC1 -20.9%
COc1cccc(NC(=O)c2sc3nc(C)c(C(=O)Nc4ccc(Cl)cc4)c(-c4ccc(Br)cc4)c3c2N)c1 -13.6%
Cn1c(=O)c2[nH]cnc2n(C)c1=O
Cc1cccc(NC(=O)c2sc3nc(-c4ccccc4)cn3c2C)c1C 25.6%
COc1ccc2c(CNCc3ccccc3OC)c(C(=O)O)n(Cc3ccc(F)cc3Cl)c2c1 -0.0964%
CCc1ccc(NC(=O)C2CCC(CNS(=O)(=O)c3ccc4c(c3)C(C)(C)C(=O)N4C)CC2)cc1 (stereo not drawn) -14.1%
Cc1ccc(Cl)cc1NC(=O)N1CCC2(CC1)Oc1ccccc1C(=O)N2Cc1ccccc1F -19.7%
CCS(=O)(=O)N1CC(=O)N(c2cc(C)ccc2C)C(C)(C(=O)NC2CCCCC2)C1 (stereo not drawn) -7.16%
Cc1cccc(NC(=O)C(=O)NCCc2sc(-c3ccccc3)nc2C)c1C 2.47%
Cc1c(Cl)cccc1NC(=O)C(CCS(C)(=O)=O)N1Cc2ccccc2C1=O (stereo not drawn) -4.24%
COc1ccc(-c2cn3c(n2)sc2cc(C(=O)NC4CCCCCC4)ccc23)cc1 5.71%
CC(=O)c1c(C)oc2ccc(N(C(=O)Oc3ccccc3)S(=O)(=O)c3ccccc3)cc12 -35.2%
Cc1ccc(S(=O)(=O)c2c(Nc3cc(C)ccc3C)sc(C(=O)c3ccc4c(c3)OCO4)c2N)cc1 -18.7%
CC(CNC(=O)c1cc(-c2ccccc2)n[nH]1)c1ccccc1 (stereo not drawn) 14.5%
CC1CCCN(c2c(S(=O)(=O)c3ccccc3)cnc3ccc(Cl)cc23)C1 (stereo not drawn) -1.65%
O=C(c1ccc(F)cc1)N1CCC(c2nc(-c3ccc(S(=O)(=O)N4CCCC4)cc3)no2)CC1 -2.86%
C[C@@]12C(=O)OC(=O)[C@@]1(C)C1CCC2O1 -49.2%
COc1ccccc1N(CC(=O)Nc1ccc2c(c1)OCO2)S(=O)(=O)c1ccc(C)cc1 -16.5%
O=C(Cn1cnc2onc(-c3ccc(F)cc3)c2c1=O)Nc1ccc(F)c(Cl)c1 -29.5%
O=C(CN1c2ccccc2S(=O)(=O)c2ccccc21)Nc1ccccc1Cl -27.8%
CCOc1ccc(S(=O)(=O)c2cn(Cc3ccccc3C)c3ccc(OC)cc3c2=O)cc1 -15.5%
CCc1nn(CC(=O)NCCCN2CCN(CC)CC2)c(=O)c2cc3occc3n12 -7.4%
CCCOc1ccc(-c2nonc2NC(=O)c2oc3ccc(Cl)cc3c2C)cc1OCCC 8.07%
O=C(c1ccc2c(c1)N(Cc1c(F)cccc1Cl)C(=O)c1ccccc1S2)N1CCOCC1 -19.3%
Cc1ccc2c(c1)c(CC(=O)Nc1ccc(C)c(F)c1)c(C(=O)O)n2C -24.7%
Cc1ccc2nc(COc3ccccc3NC(=O)c3ccccc3F)cc(=O)n2c1 -1.67%
CCOc1cccc(C2c3[nH]c4ccccc4c3CCN2C(=O)CSCc2ccc(F)cc2)c1 (stereo not drawn) -28.6%
CCc1cccc(NC(=O)C2Cc3ccccc3N2C(=O)c2ccccc2)c1 (stereo not drawn) -31%
NC(=O)Cn1c(=O)n(CCCCCC(=O)NCc2ccc(F)cc2)c(=O)c2sccc21 -0.0765%
O=C(C1COc2ccccc2O1)N(Cc1cccnc1)c1nc2c(Cl)cccc2s1 (stereo not drawn) -8.44%
COc1ccc(OC)c(NC(=O)CSc2ncc3c(n2)-c2ccccc2N(C)S3(=O)=O)c1 15%
CCOC(=O)N1CCN(Cc2nc3cc(NC(=O)C(C)C)ccc3n2C(C)C)CC1 -23.3%
CCCNC(=O)c1ccc(-c2nc(CS(=O)(=O)c3ccc(C)cc3)c(C)o2)cc1 -10.6%
COc1ccc(N(CC(=O)Nc2cccc(C(C)=O)c2)S(=O)(=O)c2ccccc2)c(OC)c1 0%
Cc1cc(OCCCn2c(CCNC(=O)C3CCCCC3)nc3ccccc32)ccc1Cl -45.2%
OCc1cnc(SCc2ccc(F)cc2)n1Cc1ccc(F)cc1 -40.4%
CCOc1ccc(C(=O)N(Cc2cc(OC)c(OC)c(OC)c2)c2ccccn2)cc1 -32.4%
CCOC(=O)C1=C(C)NC(=O)NC1c1cn(-c2ccccc2)nc1-c1ccc(OC(C)C)cc1 (stereo not drawn) -16.3%
O=C(Nc1nc2n(n1)C(c1ccc(Cl)cc1)C=C(c1ccccc1)N2)c1ccco1 (stereo not drawn) -33%
Cc1nn(C)c2c1c(C(F)(F)F)cc(=O)n2C(C)C(=O)NCCc1ccccc1 (stereo not drawn) -17.1%
Cc1ccc(-n2c3c(cc(-c4nc(-c5ccc(Cl)cc5)cs4)c2=O)C(=O)CC(C)(C)C3)cc1C -11.2%
C#CCSc1nc(-c2ccccc2)cc(-c2ccccc2)c1C#N -9.68%
O=S(=O)(c1ccc(-c2cc(C(F)(F)F)on2)s1)N1CCN(c2ccc(F)cc2)CC1 -26%
Cc1ccnc2c1NC(=O)c1cccnc1N2C1CC1
CN(C)CCC=C1c2ccccc2CCc2ccccc21 -17.2%
COc1cc(NS(=O)(=O)c2cc3c(cc2C)N(C)CCO3)cc(OC)c1OC -26%
COc1ccc(NC(=O)C2CCCN(c3ncnc4c3nc3n4CCCCC3)C2)c(OC)c1 (stereo not drawn) 0.261%
Cc1cc(Br)ccc1NC(=O)Cn1cc(S(=O)(=O)N2CCN(c3ccccc3F)CC2)c2ccccc2c1=O -8.44%
Cc1ccc(C)c(N2CCN(C(=O)CCc3nnc4n(CC(C)C)c(=O)c5ccccc5n34)CC2)c1 -1.16%
CCOc1ccc(CNC(=O)c2cnc3sc(N4CCOCC4)nn3c2=O)cc1 -8.34%
CCS(=O)(=O)N1CCc2cc(C(=O)Nc3ccc(C(=O)OC)cc3)ccc21 -27.1%
Cc1ccc(CN2CCc3nc(Nc4ccc5c(c4)OCCO5)ncc3C2)cc1 -2.48%
CCn1cc(C(=O)N2CCN(c3cccc(Cl)c3)CC2)c2cc(OC)c(OC)cc2c1=O -25.9%
CC1=C(c2ccc(C(C)C)cc2)S(=O)(=O)NC1=NCCCN1CCN(c2ccccc2F)CC1 -22.2%
C#C[C@]1(O)CC[C@H]2[C@@H]3CCc4cc(OC5CCCC5)ccc4[C@H]3CC[C@@]21C 1.34%
COc1cccc(C(=O)Nc2cccc(-c3cn4ccsc4n3)c2)c1OC 15%
CCCCS(=O)(=O)CC(O)CSc1nc(-c2ccc(C)cc2)cc(-c2ccccc2)c1C#N (stereo not drawn) -25%
Cc1ccccc1-c1noc(-c2cccnc2N2CCN(c3ccccc3)CC2)n1 -8.03%
O=C(Nc1ccc(F)cc1F)c1cc(-c2ccc(Cl)cc2)on1 -0.407%
CCOC(=O)c1ccc(NC(=O)CCn2c(=O)c3cccn3c3cccnc32)cc1 -5.65%
CCc1cccc(NS(=O)(=O)c2ccc(-n3cccn3)cc2)c1 -40.4%
CCN(CC)C(=O)Cn1c(=O)n(-c2ccc(C)c(C)c2)c(=O)c2c3c(sc21)CCCCC3 -12.8%
O=C(NCCCN1CCN(c2ccc(F)cc2)CC1)c1cnn(-c2ccc(F)cc2)c1-n1cccc1 -43%
CCc1ccc(NC(=O)CSc2ccc(-c3ccccn3)nn2)cc1 -29.7%
Cc1cccc(-c2nc3c4ccccc4n(Cc4cccc(Cl)c4)c(=O)n3n2)c1 -11.9%
O=C(CN1C(=O)COc2ccc(S(=O)(=O)N3CCOCC3)cc21)N1CCN(c2cccc(Cl)c2)CC1 -14.6%
CC(=O)c1cccc(Nc2nc(-c3cccc(C)c3)nc3ccccc23)c1 4.29% [at 11.5 µM, percent change from vehicle, -100% = no light]
CC(C)[C@H](CO)Nc1nc(Nc2cccc(Cl)c2)c2ncn(C(C)C)c2n1 -1.28%
Cc1ccccc1C(=O)Nc1ccc(OCc2cc(=O)n3ccccc3n2)cc1 9.76%
Cc1ccc(NC(=O)Cn2cc(S(=O)(=O)N3CCCC3)c(S(=O)(=O)N3CCCC3)c2)cc1F 14.7% [at 11.5 µM, percent change from vehicle, -100% = no light]
Cc1ccc(C)c(S(=O)(=O)c2nnn3c2nc(Nc2ccc(C)c(C)c2)c2ccccc23)c1 4.89%
COc1cccc(NC(=O)CCN2CCN(c3ccccc3)CC2)c1 -8.83%
COc1cccc(C(=O)NCC(c2ccc(N(C)C)cc2)N2CCc3ccccc32)c1 (stereo not drawn) -14.4%
CC(=O)c1ccc(Nc2nc3c(S(=O)(=O)c4ccccc4)nnn3c3ccc(Cl)cc23)cc1 0%
CCSc1oc(-c2ccco2)nc1S(=O)(=O)c1ccc(Br)cc1 -9.11%
Cc1ccc(NC(=O)Cn2c(=O)c3ccccc3n3nncc23)cc1 -14.2%
Cc1[nH]c(=O)c(C#N)cc1-c1ccncc1
CCN1c2ccccc2-c2nc(SCC(=O)NCc3ccccc3)ncc2S1(=O)=O -26%
COC(=O)CCNC(=O)NC(CCC(C)C)c1c(-n2cccc2)sc2c1CCN(C)C2 (stereo not drawn) 1.88%
COc1ccccc1NC(=O)Cn1c(=O)n(CCC(=O)NCC2CCCO2)c(=O)c2cc(OC)c(OC)cc21 (stereo not drawn) -0.499%
COc1ccccc1-c1cc2nc(C)c(CCC(=O)O)c(C)n2n1 -82.5%
CCC(=O)N1CCc2cc(S(=O)(=O)NCCC(=O)Nc3cc(C)ccc3OC)ccc21 -5.65%
Cc1ccc2nc(-c3ccc(O)cc3)c(Nc3ccc(Cl)cc3)n2c1 -26.4%
Cc1ccc(-c2nn(-c3ccc(F)cc3)c3c2cnc2cc(F)c(F)cc23)cc1 -16.2%
